Data on 92 molecules can be found in ChEMBL document CHEMBL1157539, “Thousands of chemical starting points for antimalarial lead identification” (Nature, 2010).

In all, about 13,000 compounds were measured (“IFI”: median about 4, highest 2% from about 17 on). This is one part of the list.

The assay can be described thus: GSK_TCMDC: Inhibition Frequency Index (IFI). The number of non-kinase HTS assays where a compound showed > 50 % inhibition, expressed as a percentage of the number of such assays in which the compound was tested (-0 is zero). It counts as functional.
Regarding `c1ccc(Cn2nnnc2-c2cccc(Nc3ccnc4cc(-c5nccs5)ccc34)c2)cc1`, the IFI came to 7.25%.

Take `CS(=O)(=O)Nc1ccc2[nH]cc(C3CCN(CC4CCC(NC(=O)/C=C/c5ccc(Cl)c(Cl)c5)CC4)CC3)c2n1` (configuration not stated): the IFI stood at 2.99%.

`CC(C)(Cc1ccc(Cl)cc1)NCCCCCCNCCc1ccc(O)c(O)c1` registered an IFI of 8.22%.

For the molecule `CS(=O)(=O)c1ccc2[nH]c(-c3cc(-c4ccc(OCCN5CCOCC5)cc4)cnc3N)nc2c1`, the IFI is -0%.

On to `CC(Oc1c(C2CCN(CCCCNC(=O)c3ccc(-c4ccc(Cl)cc4)cc3)CC2)ccc2c1CCCC2)C(N)=O` (configuration not stated), for which the IFI turned out to be 12.3%.

Turning to `FC(F)(F)c1ccc2[nH]c(-c3ccc(-c4cccc(CNCc5cnn(-c6ccccc6)n5)c4)s3)nc2c1`, the IFI is 15.9%.

In turn, `O=c1cnc2ccc(F)cc2n1CCN1CCC(NCc2cc(-c3ccccc3)cs2)CC1` returned an IFI of 10.3%.

In turn, `c1nc(CCNc2nc(Nc3ccc4c(c3)OCO4)nc(NC3CCCC3)n2)c[nH]1` showed an IFI of 0.75%.

Molecule `N=C(N)c1ccc(C=CC(=O)NCC(O)CNC(=O)C=Cc2ccc(C(=N)N)cc2)cc1` (configuration not stated) had an IFI of 2.94%.

For `COc1ccc(/N=[N+](\[O-])c2ccccc2/[N+]([O-])=N/c2ccc(OC)cc2)cc1`, the IFI worked out at 0.7%.

Molecule `COc1ccc2nccc(N(C)CC3(O)CCC(NCc4cc5c(cn4)OCCO5)CC3)c2n1` (configuration not stated) returned an IFI of 0.72%.

In the case of `O=C(Nc1ccc(OC2CCN(Cc3ccsc3)CC2)c(Cl)c1)c1ccc(F)cc1`, the IFI came to 15.2%.

`COc1cccc(-c2cc(-c3ccc(NC(=O)c4ccccc4)cc3)c3c(N)ncnc3n2)c1` gave an IFI of 4.17%.

The molecule `c1ccc(-c2cc(NCCCCNc3cc(-c4ccccc4)nc4ccccc34)c3ccccc3n2)cc1` came in with an IFI of 3.73%.

`Cc1nn(CC(C)C)c2sc(C(=O)N3CCN(S(=O)(=O)c4ccc(C#N)cc4)CC3)cc12` displayed an IFI of -0%.

In the case of `CCNc1nc(OCC(F)(F)F)nc(N(c2ccccc2)c2ccccc2)n1`, the IFI came out at 2.21%.

`O=C(Nc1cccc(-c2ccc(-c3nc4ccccc4[nH]3)s2)c1)c1ccncc1` came in with an IFI of 6.42%.

The molecule `CN1CCN(CC(=O)Nc2ccc(-c3ccc(-c4nc5cc(C(F)(F)F)ccc5[nH]4)s3)cc2)CC1` gave an IFI of 7.96%.

The molecule `Oc1cc(Nc2ccnc3cc(I)ccc23)ccc1F` returned an IFI of 1.45%.

In the case of `CCNc1cc(C(=O)N[C@@H](Cc2ccoc2)[C@H](O)CNC(C)CCCC(C)C)cc(N2CCCCS2(=O)=O)c1` (some centres not stated), the IFI was determined as 3.47%.

On to `O=C(Nc1nc(-c2cc(F)ccc2F)cs1)c1cncc(Br)c1`, for which the IFI is -0%.

The molecule `O=C(Nc1cccc(-c2nn3ncccc3c2-c2ccnc(Nc3cccnc3)n2)c1)c1c(F)cccc1F` displayed an IFI of 3.6%.

`Cc1nc(C)c(-c2ccc(C(=O)c3ccccc3)cc2)c(O)c1Br` returned an IFI of 0.75%.

`O=C(C=Cc1cccc(F)c1)NC1CCC(CCN2CCc3ccc(-c4cnccn4)cc3CC2)CC1` (configuration not stated) came in with an IFI of 6.72%.

Molecule `Fc1ccc2[nH]c(-c3ccc(-c4ccc(CNCC5CCCO5)cc4)s3)nc2c1` (configuration not stated) gave an IFI of 7.92%.

On to `COc1ccc(NC(=O)Nc2ccc(-c3ccccc3)cc2)cc1Cn1nc(Cl)c(N2CCCNCC2)cc1=O`, for which the IFI is 11%.

As to `COc1cccc(OC)c1OCCCOc1c(C)nc(N)nc1N`, the IFI amounted to 1.45%.

As for `CN1CCCN(Cc2cccc(-c3ccc(NC(=O)c4cccc(C#N)c4)cc3)c2)CC1`, the IFI was determined as 5.94%.

Turning to `Cc1ccc(C2CC(=O)CC(c3ccccn3)C2[N+](=O)[O-])cc1` (configuration not stated), the IFI was -0%.

With `CC(=O)Nc1cccc(Nc2c3ccccc3nc3ccccc23)c1`, the IFI worked out at 7.43%.

In the case of `O=[N+]([O-])c1ccc(N/C(=N\c2ccccc2Br)NCCOc2ccccc2)c(O)c1`, the IFI is 4.86%.

`CN(C)CCCOC(=O)c1cc2cc(-c3ccccc3)ccc2n1S(=O)(=O)Cc1ccccc1` gave an IFI of 6.99%.

The molecule `Cc1ccc(Nc2nc3cc(N(C)c4ccnc(Nc5cccc(CS(C)(=O)=O)c5)n4)ccc3o2)cc1` displayed an IFI of 2.27%.

Turning to `CCN(C)CCCn1c(N(C)C)nc2cc(-n3cnc4cc(-c5ccc(Cl)cc5)sc4c3=O)ccc21`, the IFI turned out to be 8.66%.

`Cc1cc(CNC(c2ccccc2)C2CCC2)cc(C)c1O` (configuration not stated): the IFI worked out at 0%.

As to `O=C(Nc1ccc(OC2CCN(Cc3ccc(F)cc3)CC2)c(Cl)c1)c1ccccc1`, the IFI is 6.78%.

The molecule `Oc1c(CN2CCC(Cc3ccccc3)CC2)cc(Cl)c2cccnc12` gave an IFI of 18.8%.

`N#CCCN1CCN(Cc2cccc(-c3ccc(-c4nc5cc(C(F)(F)F)ccc5[nH]4)cc3)c2)CC1` registered an IFI of 7.04%.

Take `O=C1CC(C(=O)O)CC(=O)N1`: the IFI was determined as 0%.

On to `COc1ccc(-c2cnc(N)nc2N)cc1Cl`, for which the IFI worked out at 1.48%.

`Oc1ccc(-c2ccccc2)cc1CNC1CCCCC1` yielded an IFI of 0.74%.

`CN(Cc1ccc(NC(=O)CCC2CCN(C(=O)/C=C/c3ccc(Cl)c(Cl)c3)CC2)cc1)C1CCOCC1` yielded an IFI of 2.99%.

Consider `COC(=O)c1cccc(OCCNC2CCN(C[C@H](O)c3ccnc4ccc(OC)cc34)CC2)c1`, for which the IFI worked out at 2.92%.

For the molecule `CC(Cc1ccc(CN2CCN(Cc3ccccc3)CC2)cc1)NCC(O)c1cccc(C(F)(F)F)c1` (configuration not stated), the IFI is 9.15%.

`CC(=O)Nc1cccc(C(=O)Nc2ccc(-c3cccc(-c4nc5cc(C(F)(F)F)ccc5[nH]4)c3)cc2)c1` showed an IFI of 4.42%.

`COc1ccc(NC(=O)/C=C/c2ccccc2Cl)cc1OCCN1CCC(Cc2cc3ccccc3[nH]2)CC1`: the IFI worked out at 5.04%.

In turn, `NC(=O)c1cccc(Nc2nccc(Nc3ccc(Oc4cccc5ccccc45)cc3)n2)c1` gave an IFI of 5.76%.

As for `COc1ccc(Br)cc1C1C2C(=O)N(c3ccc(Br)cc3)C(=O)C2C2(C(=O)O)CC(OCc3ccccc3)CN12` (configuration not stated), the IFI is -0%.

The molecule `CN1CCC(N2CCN(Cc3ccc(-c4ccc(-c5nc6ccccc6[nH]5)s4)cc3)CC2)CC1` came in with an IFI of 5.63%.

`Cc1ccc(S(C)(=O)=O)cc1/C=C/C(=O)O`: the IFI was -0%.

On to `CC(C)C[C@@H](/C=N/N1CCOC1=O)NC(=O)[C@H](CC(C)C)NC(=O)c1ccc(OCCN2CCOCC2)cc1`, for which the IFI came to 7.27%.

Molecule `O=C(Nc1cccc(-c2ccc(-c3nc4ccccc4[nH]3)cc2)c1)c1csnn1` displayed an IFI of 4.5%.

`CC(C)(C)c1ccc(-c2csc(NC(=O)CC(c3ccccc3)c3ccccc3)n2)cc1` had an IFI of 0%.

The molecule `COC(=O)c1cc(/C(C)=N/Nc2nc3ccccc3[nH]2)ccc1O` gave an IFI of 1.48%.

As to `CCOc1ncccc1CN1CCC(N2CCc3cc(NC(=O)c4cc(C)on4)ccc32)C1` (configuration not stated), the IFI was -0%.

As for `CC(C)(C)c1nn(-c2ccc(Cl)cc2)c2[nH]c(=O)c(CNCc3ccc4c(c3)OCO4)cc12`, the IFI amounted to 7.96%.

Turning to `OCCN1CCN(C2Cc3ccc(F)cc3Sc3ccc(Cl)cc32)CC1` (configuration not stated), the IFI is 2.31%.

Turning to `O=C(CN(c1cccc(C(F)(F)F)c1)S(=O)(=O)c1ccc(Cl)cc1)NCCC(c1ccccc1)c1ccccc1`, the IFI was 4%.

Turning to `CC1CN(Cc2ccc(-c3ccc(-c4nc5cc(F)ccc5[nH]4)cc3)cc2)CC(C)O1` (configuration not stated), the IFI was found to be 12.5%.

`CCc1cn2c3c(cc(C(=O)N[C@@H](Cc4ccccc4)[C@H](O)CNC4CCOCC4)cc13)N(C(C)C)S(=O)(=O)CC2` yielded an IFI of 2.19%.

Take `Nc1nc(N)c2c(ccc3c2ccn3CCCC(F)(F)F)n1`: the IFI was 5.56%.

For `CCN(CCNC(=O)Nc1cc(C(F)(F)F)cc(C(F)(F)F)c1)c1cccc(C)c1`, the IFI worked out at 11.9%.

The molecule `Cc1[nH]c2ccc(-c3ccc(N(C)C)cc3)cc2c(=O)c1Cl` registered an IFI of 0.92%.

Turning to `CN(C)C(CNC(=O)c1cc(-c2ccncc2)c(-c2ccc(Cl)c(O)c2)o1)c1ccccc1` (configuration not stated), the IFI is 0.76%.

`Fc1ccc2[nH]c(-c3cccc(-c4cccc(CNCc5ccccc5)c4)c3)nc2c1` had an IFI of 6.73%.

`COc1ccc(CCN2CC[C@H](CNc3nc(-c4ccccc4)nc4ccccc34)C2)cc1S(N)(=O)=O`: the IFI amounted to 1.55%.

Molecule `CCCC(C)NC(=O)[C@H]1CNCCN1C(=O)CCCc1ccccc1` (some centres not stated) yielded an IFI of -0%.

Molecule `CN(C)c1ccc(C=Cc2ccc3ccccc3n2)c(Cl)c1` displayed an IFI of 12.3%.

As to `Clc1ccc(CCNCCCCCCNCCc2ccc3c(c2)OCO3)cc1`, the IFI is 3.62%.

Consider `C#CCCC(=O)Nc1cccc(-c2cccc(-c3nc4cccc(C)c4[nH]3)c2)c1`, for which the IFI worked out at 4.55%.

Take `CCOCn1c(-c2ccccc2)cc2c3c(N)nc(N)nc3ccc21`: the IFI stood at 4.29%.

`C1=CN(Cc2ccccc2)C=CC1=C1C=Nc2ccccc21` showed an IFI of 2.31%.

For `Cc1cc2c3c(N)nc(N)nc3ccc2n1C`, the IFI was 5.51%.

In turn, `CCCCCN1CCC(NC(=O)c2ccc(C(=O)Nc3ccc(C(C)C)cc3)cc2)CC1` returned an IFI of 4.35%.

For the molecule `Cc1cc(C)n2nc(C(=O)Nc3cc(C(F)(F)F)ccc3N3CCOCC3)nc2n1`, the IFI was 0.69%.

For the molecule `CCCCCC(C)N/C(=N/c1cccc(Cl)c1Cl)Nc1ccc(C#N)cc1O` (configuration not stated), the IFI amounted to 6.43%.

As to `CC(C)[C@H](NC(=O)c1ccc(O)c(-c2ccc(Cl)c(Cl)c2)c1)C(=O)NCCN(C)C`, the IFI amounted to 0%.

In the case of `O=C(Nc1cccc(CN2CCCN(Cc3ccsc3)CC2)c1)c1cc2ccccc2s1`, the IFI was determined as 7.33%.

As for `COc1ccc(C(=O)Nc2ccc(-c3ccc([N+](=O)[O-])cc3)cc2)cc1CCCN(C)C`, the IFI is 2.34%.

In turn, `Nc1nc(N)c2c(ccc3[nH]ccc32)n1` gave an IFI of 2.84%.

`O=[N+]([O-])c1cccc(CNC2CCN(Cc3ccc(C(F)(F)F)cc3)CC2)c1` showed an IFI of 1.41%.

With `COc1ccccc1NC(=O)Nc1ccc(-c2ccc(-c3nc4cccc(C)c4[nH]3)s2)cc1`, the IFI amounted to 6%.

In the case of `Cc1nc(N)nc(N)c1OCc1cccc2c1ccc1ccccc12`, the IFI worked out at 1.44%.

In turn, `CC[C@H](C)CNC(=O)c1cccc(-c2cccc(CNCC3CNCCCO3)c2)n1` (some centres not stated) displayed an IFI of 10.3%.

As for `NC(=O)c1cccc(C(=O)Nc2cccc(-c3cccc(-c4nc5cc(C(F)(F)F)ccc5[nH]4)c3)c2)c1`, the IFI came out at 5.77%.

Turning to `Cc1ccc(Nc2nc(C)cc(NC3CCCC3)n2)cc1`, the IFI worked out at 21.3%.

`Oc1ccc2ccccc2c1C=NNc1nc(=Nc2ccccc2)nc(N2CCOCC2)[nH]1`: the IFI was determined as 3.68%.

`Cc1[nH]c2ccccc2c1C1CCN(CCCCNC(=O)c2ccc(-c3ccc(C#N)cc3)cc2)CC1`: the IFI was 0.93%.

The molecule `COc1ccc(-c2ccc(NC(=O)c3cccc(Cl)c3)c(F)c2)cc1CNC(C)C` showed an IFI of 6.06%.

Regarding `COc1ccc2nccc([C@@H](O)CN3CCC(NCC(O)Cc4ccccc4)CC3)c2c1` (some centres not stated), the IFI is 1.48%.

The molecule `CCCN1CCN(CCCNC(=O)c2cc3c(-c4ccc(Cl)cc4)nn(C)c3s2)CC1` showed an IFI of 6.12%.

In the case of `Cc1cc(N[C@@H](Cc2ccccc2)C(=O)Nc2ccccc2)nc(NCCc2ccc(F)cc2)n1`, the IFI was 6.82%.
